Over roughly 33,000 sequences, “E-score (-0.5 to 0.5)” has its median near -0.054; the highest 2% begin near 0.35. The list shows a part of the results.
target: T1, Stb5 (UniProt P38699); assay: PBM E-score (8-mer binding enrichment) (E-score (-0.5 to 0.5)); higher = stronger / more preferred TF binding; most listed sequences are background and not binding sites; settings: protein concentration: 200 nM; construct: GST-full length
T1 sequence: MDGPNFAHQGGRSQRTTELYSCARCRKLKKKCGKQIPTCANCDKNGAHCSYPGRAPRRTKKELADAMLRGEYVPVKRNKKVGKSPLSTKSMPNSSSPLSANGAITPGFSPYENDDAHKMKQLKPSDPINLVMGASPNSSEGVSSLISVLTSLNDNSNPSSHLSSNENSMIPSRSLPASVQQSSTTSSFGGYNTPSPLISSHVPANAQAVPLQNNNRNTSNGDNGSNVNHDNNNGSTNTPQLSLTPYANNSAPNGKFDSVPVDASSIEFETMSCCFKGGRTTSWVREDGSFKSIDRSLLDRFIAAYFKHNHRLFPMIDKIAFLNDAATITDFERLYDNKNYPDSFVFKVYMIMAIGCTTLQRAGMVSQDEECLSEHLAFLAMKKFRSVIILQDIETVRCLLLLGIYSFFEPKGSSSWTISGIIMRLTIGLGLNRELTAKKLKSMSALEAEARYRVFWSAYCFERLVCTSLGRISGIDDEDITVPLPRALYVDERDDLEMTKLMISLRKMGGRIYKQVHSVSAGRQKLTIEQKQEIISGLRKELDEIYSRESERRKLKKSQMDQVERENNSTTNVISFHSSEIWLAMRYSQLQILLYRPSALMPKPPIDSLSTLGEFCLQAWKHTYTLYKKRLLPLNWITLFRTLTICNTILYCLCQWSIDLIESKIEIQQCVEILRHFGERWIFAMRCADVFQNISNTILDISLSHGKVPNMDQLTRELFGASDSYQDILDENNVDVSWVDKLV
Procedure, shortened: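 E-scores (a modified Wilcoxon-Mann-Whitney statistic) were assigned by the Universal PBM Analysis Suite to every ungapped eight-base word pooled with its reverse complement. The input came from universal all-10-mer Agilent arrays made double-stranded by primer extension and probed with GST-tagged yeast transcription factors at about 100-200 nM. Fluorescent anti-GST detected bound protein, and masliner normalised the scans.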

Sequence	PBM E-score
TCCACACA	-0.0936
AGATCGAC	-0.103
AAATTCGA	0.0745
GGCATTGA	0.216
GCCAAGGC	-0.22
CAGTGTCG	0.0936
CTAAAAAG	-0.0674
ATGCACTG	-0.241
AATATTTA	-0.169
CACCTCGC	0.0627
AGTTATTG	-0.0485
CAAGCGTA	-0.179
CCCTGCAA	-0.151
CTTAACAC	0.075
AAGCCCTA	-0.0699
ACGGGAGT	0.209
CACATTCC	0.178
CCCATAGG	-0.136
CCTTGGCA	-0.227
GTATCAAA	-0.101
ACGGTTGC	-0.0121
GTTATCGA	-0.0558
ATGCGCGC	0.127

Sequence	PBM E-score
ACTTAAAA	0.169
CGGCTATC	0.183
CTGGCCAA	-0.22
AAGGGGCC	0.0126
AGAGAACA	-0.297
ACATAGCC	0.00889
CCCGCTGA	0.27
ATTCCCGC	0.4
CCCTATTC	0.0812
AGGAGCCG	0.0365
AGGCAGAG	-0.303
GGTGGTCA	-0.0287
ACTCCACC	-0.107
ATCTTTTC	-0.117
TGTGGAAA	-0.0271
AACTATTC	0.00015
ACCTGCCT	-0.151
ATACGGAA	0.18
CTAGATAG	-0.127
AGTCACGC	-0.138
CCGATCGA	0.285
GATAGAAA	0.0191
TCCCAGGA	-0.129

Sequence	PBM E-score
GAATTCCA	-0.0966
AAATCTTC	-0.0716
AGAGAACC	-0.125
ACTTGGGC	0.00016
CCTAAGAG	-0.15
TGGCCCCA	-0.308
CGGCAGTA	0.4
AGGTAGAG	-0.118
ACAGCGAC	0.168
ATTCCCGG	0.319
AAAAATAA	0.0182
TTAAGAAA	-0.105
CCCGGTCC	0.238
AGAAAATA	0.047
CACGTGGG	-0.179
GCTCAAGC	-0.0534
GGCCCATA	0.00356
GGACGCTA	-0.0496
AAGCTTGC	-0.243
ACCGCGAC	0.29
CCGTAGAA	-0.0331

Source: the supplement of paper PMC3334620
